Test results taken from the supplement of paper PMC11417369.
Some of the results follow.

tested on: PF3D7_0420300 AP2 domain 1 (GST-tagged); assay: gcPBM binding intensity (ln(normalized median fluorescence intensity)); higher = stronger DNA binding
Outline: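 The highest Masliner-normalised natural-log median intensity across replicate spots of either probe orientation is reported as binding intensity. GST-tagged P. falciparum DNA-binding domains expressed in E. coli were applied for 1 h to an Agilent 4 × 180k array of primer-extended double-stranded 36-bp intergenic genomic probes plus negative controls, and bound protein was detected with Alexa488 anti-GST antibody and scanned at 488 nm.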

Row | Sequence | gcPBM binding intensity (ln)
1 | CATATATATATATGAACACACAAAAAGAATATTTCC [CACACA_site1493] | 9.59
2 | TCTATACCTATTCTTACACACATATGTATTTATATA [CACACA_site4475] | 9.81
3 | TTCTATGCATTTATAGTGCATGTAAAATATAAGATA [GTGCAC_site9466] | 8.79
4 | AATTATATTTAGTATATGCACACTTTATGTTTGTTA [CACACA_site2025] | 9.42
5 | GTAGAAAGAAAAATTAGTACTTAAATATTATAAAAA [XGTACX_site8458] | 9.11
6 | TTTAAAAAAAAAAAAAATTTTTTTTTTTTTTTTTTA [CACACA_negctrl_site1415] | 8.52
7 | TTTATATACTATCAACGTACAAAAGTAATAAAAATA [XGTACX_site4343] | 9.03
8 | GGATTTTACCATAGCACACATATATGAATATTTTTC [CACACA_site1814] | 9.44
9 | TTGTAACAAAAGTACACACACATTTCTATAAATTTT [CACACA_site2772] | 9.6
10 | CATTTTATTTTCTTTGTGCACAAAAATATTTTTTCT | 9.3
11 | AAAGTTATGATATATACACACATATAAATATTAAAT [CACACA_site6361] | 9.49
12 | TGTTCTAATTTTAATTGTACATATATACATATATAT [XGTACX_site7290] | 9.46
13 | GTAAATATATATATATATATATATATATATATATAT [GTGCAC_negctrl_site239] | 9.16
14 | TTCTGTATACGGTGTGCACACAATTAAAAAAAAAAA [CACACA_site1416] | 9.47
15 | AACATATAAAAATATGCACACACAGGAATACAAACA [CACACA_site8127] | 10.3
16 | TTAAATAACCTCAAGGATAAGAAAAAATTAAAAATT [CACACA_negctrl_site1336] | 9.15
17 | CTTTATATATATTGCGTGCACATTTTTTTTTTTTTT | 9.49
18 | CTATTTAAAATTTGAACACACATTATTTATTTTAAA [CACACA_site3114] | 9.17
19 | GAAATAATAAAATCGACACACAAAAAAAAAAAAAAA [CACACA_site3476] | 9.32
20 | AATAAATACAAAAATGTACACACATATATATATTTT [CACACA_site9167] | 9.56
21 | TCAATATATATAAGAAGTACATGTGAATGAAAAAAA [XGTACX_site1674] | 9.39
22 | ATATCAAATAATTTAGTGCACTTTTTTTTTTCTTTT [GTGCAC_site9629] | 9.24

Row | Sequence | gcPBM binding intensity (ln)
23 | AAGGAATAAAATTTAGAAGACAATTTTATTTCAGTA [XGTACX_negctrl_site331] | 8.98
24 | GGTATTTTCACATATAGTACACAAAAATAAAATAAA [XGTACX_site2139] | 9.09
25 | TTTTTTTTTTTTTTTTTTTTTTTCTACCTATTTATT [CACACA_negctrl_site94] | 8.35
26 | TATGTATATTGAGATTGTACTTGTAATATTAAACAT [XGTACX_site3878] | 9.07
27 | TTGTATAAAATATGTAGTACAATAATATAACATTTT [XGTACX_site8607] | 9.29
28 | AATAATAAAAATATTGTGCACTTGTATATTTATTAT [GTGCAC_site9963] | 9.3
29 | AAAAAATACCAAAGGGGTACTTACACATAATACTTA [XGTACX_site2111] | 9.29
30 | CATCAAAATGAAGCATGTACATAATATAAATAAATA [XGTACX_site4647] | 9.22
31 | CTTTTTACTTAATACACACACACACCCAAAAAAAAA [CACACA_site948] | 9.97
32 | TTTATACTTTCAAAATGTACATATATATATATATAT [XGTACX_site6241] | 9.1
33 | CTAATCATAAAATATACACACACGGATACATTAAAT [CACACA_site2685] | 10.1
34 | ATTGAAGGGAAATATATAATCATATTCAAAATAAAA [CACACA_negctrl_site728] | 9.15
35 | ATTTCTCTATCGTAATGTACAAAAAAAAGGGAAAAG [XGTACX_site1335] | 9.2
36 | TAATATATAATTTTATGTACATAATTATAAACCCAT [XGTACX_site919] | 9.5
37 | TGAATGCTTTTATGCACACGTACAAAAATATTATAT [CACACA_site2668] | 9.14
38 | AATAAAAATAACCTAACATGCAAAAAAAAAAAAAAA [TGCATGCA_site718] | 9.28
39 | GTCATTAAAAAAATATGTACTTAAATGTATGCATAT [XGTACX_site5951] | 9.13
40 | TATAATAAATCAAATGCACACACACTAATAAAAAAA [CACACA_site7937] | 10.1
41 | GGAATATAAATACATACACACATATATATATATATA [CACACA_site4998] | 9.44
42 | TGTTGTTATAAAAAAAAAAAAAAAAAAAAAAAAAAA [GTGCAC_negctrl_site230] | 8.55
43 | ATATAAAATAAATAAGTGCAGATAAATTTATGTGAC [GTGCAC_site9504] | 9.73
44 | TGTGGTTTTTATAATTGTACATATATATAAATCTAT [XGTACX_site4766] | 9.41

Row | Sequence | gcPBM binding intensity (ln)
45 | TATATATTATATATATGTACTTATTTATTAATTTAT [XGTACX_site5253] | 9.2
46 | TACATGCTTATTTTAACACACAAATGGTAGTAATAA [CACACA_site766] | 9.29
47 | ATGAATATTTACAATCTTATTATGTTCAAAATTAAT [CACACA_negctrl_site592] | 9.02
48 | TGACGACATTTCTTATGTACTAATTTTTCTTCCTTT [XGTACX_site4391] | 9.21
49 | TAAAAAAAGAAAAAAAGTACATGCTACTTTTATGAT [XGTACX_site7818] | 9.19
50 | CAAAATGATATGACAACACACAACCTATAGTAAGAC [CACACA_site1287] | 9.96
51 | TAATATATAATAAAGTGTACATATGCTTTATTATTA [XGTACX_site1920] | 9.08
52 | AAGTTATACACATCAACACACACATACAACGTGGTG [CACACA_site8312] | 9.79
53 | TAAACACATTATATATGTACATAATAAAAAAAAAAA [XGTACX_site7907] | 9.24
54 | TATATAATATAATGTAGTACATGTTTTATTTTTTAC [XGTACX_site7735] | 9.38
55 | ATTTATTTATTTTCATGTACATATGTAAATCAATAA [XGTACX_site3886] | 9.01
56 | ATAAAATACAAAGGGACACACATATGAGTCTACAAA [CACACA_site3092] | 9.64
57 | ATATTAACTTTTATTACACACTCTCAACTTTTATTT [CACACA_site6176] | 9.72
58 | TCACAAATGTATTATACACACAAGTTTTCTTTAATA [CACACA_site4107] | 9.44
59 | ATTATAAATAAATATTGTACTTATATGATCTATTTG [XGTACX_site3820] | 9.13
60 | AGAATAATATAATAAAGTACAAACCTATCTAACTAC [XGTACX_site5477] | 9.69
61 | CCTTTCACATATAATACATGCATTATTATATATGAA [TGCATGCA_site287] | 9.14
62 | GGATATATTATATGTACACACACATATAAGGGATTA [CACACA_site7884] | 9.7
63 | ATTGCATTTGTAGATAATACAATATGGATTGTTATA [CACACA_negctrl_site1749] | 9.08
64 | AAAAATTTTATATTCACACACATATTTATATTTATA [CACACA_site6439] | 9.51
65 | ATATATAAAAAAGCTAGTACACAAAAATATATAATG [XGTACX_site3001] | 9.77
66 | TTCTTTTCTCTTTTAATCATATTATATAAATGAATA [CACACA_negctrl_site820] | 9.14

Row | Sequence | gcPBM binding intensity (ln)
67 | AAAAAAATTTATTAAAGTACTAGATAATCATATAAA [XGTACX_site1455] | 9.03
68 | TTATACAACAAGAAAATTATAAAATGTAACATATAT [GTGCAC_negctrl_site406] | 9.37
69 | ATATTAATATAATGTGCATGTTCAATGATCTTTTTA [TGCATGCA_site22] | 9.15
70 | ATAATTATTAATATAGTGCATTGGCATAATAATATA [GTGCAC_site9810] | 9.21
71 | TATTTTTTAACACAACGTACATATAAAAAATATTTA [XGTACX_site6025] | 8.98
72 | TACAAATATATATGCACACACATATATGTATATGTG [CACACA_site3075] | 9.63
73 | TTAGATATAATATATACACACCAACGAACGAAGAAA [CACACA_site4763] | 9.82
74 | AGTAAATAACACAAATATGAATGAAAAAAAAAATAT [GTGCAC_negctrl_site235] | 9.73
75 | TGTGCGGAAATAAGTGCACACATAGATATCTGTATT [CACACA_site5935] | 9.37
76 | CAACTTATTAAAAGTCGTACAAATGGGAAGAAGGAA [XGTACX_site6325] | 9.32
77 | ATATATATATAGTACGCACACATAGTTGTACATTAA [CACACA_site2787] | 9.38
78 | CGTATGAGTAAATACACACCCACGTATATATATAAA [CACACA_site5728] | 9.29
79 | GAGTAAAAATTAAAATGTACATATTATATATATTTA [XGTACX_site1319] | 9.09
80 | ATGAATGTCCCAAGATGTACAATTATATATAACACA [XGTACX_site4702] | 9.17
81 | AAATCCTTATTTTTTTGTACGTAATATTTTATATGG [XGTACX_site1530] | 9.35
82 | TAATAAATAAGACACACACACATATATATATATTAT [CACACA_site1389] | 10.2
83 | TTTTAAGATATAAATTAATACTTATATATATAGATA [CACACA_negctrl_site22] | 8.88
84 | ACATTAAAAAAAAAATGTACATAAATATTTTTCCTT [XGTACX_site4361] | 9.01
85 | AATTTTATTCATTGAGCACACAAAATAAATTATCAA [CACACA_site9079] | 9.08
86 | ATCTTTTATATAAAATGTACAGAGTTTGAAAGAATA [XGTACX_site8826] | 8.95
87 | GTATTACAACGACACACACACCTATATATCATAGTA [CACACA_site7877] | 9.96
88 | TATATACACATATATAAACACACAAAAAAAAAAAAA [CACACA_site8626] | 9.6
